Measured values reported in PubChem BioAssay AID1508623 (National Center for Advancing Translational Sciences (NCATS), 2021).
Among all 48,000 compounds or so, about 450 (0.94%) were called active. Inconclusive results, whose numbers are uncertain, are shown with a selection of clear calls. Calls come from the whole dose curve; as a rule, active = well fitted inhibition curve with a large enough effect; inconclusive = small, poorly fitted or top-dose-only effect; inactive = no such curve, though single readings can be large or run the other way. Potencies beside an inconclusive call are fits to weak or partial responses and may not hold up.

Test: Primary qHTS for Identification of Small Molecule Inhibitors of Huntingtin Promoter Activity; note: nearly all actives have a fitted effect of over 50% in size
Details: HEK293 HTT promoter firefly luciferase reporter (activity 0% = vehicle and -100% = no light), 24 h; activity change, negative = inhibition: at 57.5 µM (top of the series)
Procedure, shortened: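 Quantitative HTS used concentration series of up to 57.5 uM final on HEK293 luciferase reporter cells, 24 h at 37 degrees C. Readout was Dual-Glo firefly luminescence.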
Potency is the fitted concentration of half-maximal effect; tags give direction and shape of the fitted curve.

**Q.** With `COc1ccc(OC)c(NC(=O)Cn2ccn(-c3ccc(F)cc3)c(=O)c2=O)c1` as the compound, how does the Potency read?
**A.** inactive

**Q.** Which Potency does the source give for `O=C(NCc1ccc2c(c1)CCN2C(=O)c1ccncc1)c1ccccc1Br` here?
**A.** inconclusive: 31.6 µM [inhibitor, single point]

**Q.** Which Potency does the source give for `CC(C)c1ccc(NC(=O)c2cc3c(=O)oc4ccccc4c3s2)cc1` here?
**A.** inactive

**Q.** With `CCOC(=O)c1ccc2ncc(C(=O)OCC)c(NCCc3ccc(OC)c(OC)c3)c2c1` as the compound, how does the Potency read?
**A.** inactive

**Q.** Which Potency does the source give for `CCc1ccc(OCC(=O)NCC(c2ccc(Cl)cc2)N2CCOCC2)cc1` (stereo not given) here?
**A.** inconclusive: 20 µM [inhibitor, partial curve, poor fit]

**Q.** With `COc1ccc(N2CCN(C(CNC(=O)C(=O)NCc3ccc(C)cc3)c3cccnc3)CC2)cc1` (stereo not given) as the compound, how does the Potency read?
**A.** inconclusive: 11.2 µM [inhibitor, partial curve]

**Q.** Which Potency does the source give for `CC(C)Oc1ccc(CNC(=O)C2CCN(C(=O)N3CCOc4ccc(Cl)cc43)CC2)cc1` here?
**A.** inconclusive: 25.1 µM [inhibitor, partial curve, poor fit]

**Q.** With `Cc1cccc(NC(=O)CSc2nc3ccccc3c3nc(CCn4cncc4C)nn23)c1` as the compound, how does the Potency read?
**A.** inactive

**Q.** With `Cc1cccc(N2CCN(S(=O)(=O)c3ccc(F)c(C(=O)Nc4cccc(Cl)c4C)c3)CC2C)c1` (stereo not given) as the compound, how does the Potency read?
**A.** inconclusive: 31.6 µM [inhibitor, partial curve]

**Q.** With `O=C(NCCSc1c(-c2ccc(Cl)cc2)[nH]c2ccccc12)c1ccc(S(=O)(=O)N2CCOCC2)cc1` as the compound, how does the Potency read?
**A.** inconclusive: 20 µM [inhibitor, single point]

**Q.** Which Potency does the source give for `Cc1cc(C)c(S(=O)(=O)NCC(c2ccco2)N2CCN(c3ccccc3)CC2)c(C)c1` (stereo not given) here?
**A.** inactive

**Q.** With `Cc1cc(C(F)(F)F)c2c(N)c(C(=O)Nc3c(Cl)cccc3Cl)sc2n1` as the compound, how does the Potency read?
**A.** inconclusive: 39.8 µM [inhibitor, partial curve, poor fit]

**Q.** For `COC(=O)c1c(NC(=O)c2c(OC)cccc2OC)sc2c1CCCC2`, which Potency is on record?
**A.** inconclusive: 28.2 µM [inhibitor, partial curve, poor fit]

**Q.** With `CC1CCCCN1S(=O)(=O)c1ccc2[nH]c(=O)cc(C(=O)NCCc3ccc(Cl)cc3)c2c1` (stereo not given) as the compound, how does the Potency read?
**A.** inconclusive: 28.2 µM [inhibitor, single point]

**Q.** Which Potency does the source give for `CNc1nc(Oc2ccc(=O)[nH]n2)nc(N2CCOCC2)n1` here?
**A.** inactive

**Q.** With `CC(=O)c1c(C)oc2ccc(N(C(=O)c3ccncc3)S(=O)(=O)c3ccc(F)cc3C)cc12` as the compound, how does the Potency read?
**A.** inconclusive: 14.1 µM [inhibitor, partial curve]

**Q.** With `COc1cc(Cl)c(NC(=O)CN(C)S(=O)(=O)c2ccc3[nH]c4c(c3c2)CCCC4)c(OC)c1` as the compound, how does the Potency read?
**A.** inconclusive: 31.6 µM [inhibitor, single point]

**Q.** With `COc1cccc(CNC(=O)c2cccc(NC(=O)c3nsc4ccccc34)c2)c1` as the compound, how does the Potency read?
**A.** inactive

**Q.** Which Potency does the source give for `COc1cc(-c2nc3cnccn3c2Nc2ccc(C(C)C)cc2)ccc1O` here?
**A.** inconclusive: 31.6 µM [inhibitor, partial curve, poor fit]

**Q.** With `CCc1ccc(S(=O)(=O)Nc2cc(-c3cn4ccccc4n3)ccc2C)cc1` as the compound, how does the Potency read?
**A.** inconclusive: 14.1 µM [inhibitor, partial curve]

**Q.** For `COc1ccc(C)c2sc(N(Cc3cccnc3)C(=O)COc3ccccc3)nc12`, which Potency is on record?
**A.** inconclusive: 20 µM [inhibitor, partial curve, poor fit]

**Q.** Which Potency does the source give for `Cc1ccc(-n2ncc3c(N4CCN(C)CC4)ncnc32)cc1` here?
**A.** inconclusive: 0.891 µM [inhibitor, partial curve, poor fit]

**Q.** For `COc1cc(OC)cc(C(=O)NCc2ccc3c(c2)CCN3C(=O)c2ccccc2)c1`, which Potency is on record?
**A.** inconclusive: 14.1 µM [inhibitor, partial curve, poor fit]

**Q.** For `CCOc1ccc(Nc2c(S(=O)(=O)c3ccc(C)cc3)cnc3ccc(OC)cc23)cc1`, which Potency is on record?
**A.** inconclusive: 35.5 µM [inhibitor, partial curve, poor fit]

**Q.** With `CC(=O)N1CCCc2cc(S(=O)(=O)NCc3ccc(N(C)C)cc3)ccc21` as the compound, how does the Potency read?
**A.** inconclusive: 25.1 µM [inhibitor, single point]

**Q.** Which Potency does the source give for `COc1cccc(C(=O)Nc2ccc3nc(SCc4ccc(C)cc4)sc3c2)c1` here?
**A.** inconclusive: 17.8 µM [inhibitor, partial curve]

**Q.** Which Potency does the source give for `Cc1cccc(-n2c(SCC(=O)Nc3ccccc3Cl)nc3n[nH]c(C)c3c2=N)c1` here?
**A.** inconclusive: 39.8 µM [inhibitor, single point]

**Q.** Which Potency does the source give for `CSc1ccc(CCNC(=O)c2sc3ncccc3c2-n2cccc2)cc1` here?
**A.** inconclusive: 22.4 µM [inhibitor, partial curve, poor fit]

**Q.** For `Cc1ccc(C)c(N2CCN(C(=O)C(C)n3nc(C)c4sc5ccccc5c4c3=O)CC2)c1` (stereo not given), which Potency is on record?
**A.** inactive

**Q.** Which Potency does the source give for `COC(=O)c1ccc(NC(=O)N2CCc3c([nH]c4ccccc34)C2c2ccc(C)cc2)cc1` (stereo not given) here?
**A.** inconclusive: 22.4 µM [inhibitor, partial curve]

**Q.** For `O=C(O)c1ccc(-n2nc(-c3ccccc3O)nc2-c2ccccc2O)cc1`, which Potency is on record?
**A.** inconclusive: 28.2 µM [inhibitor, single point]

**Q.** Which Potency does the source give for `COC(=O)CCc1ccc(OCC(O)CNC(C)C)cc1` (stereo not given) here?
**A.** inactive

**Q.** Which Potency does the source give for `O=C(Nc1ccccc1C(=O)OCc1cc(=O)n2c3c(sc2n1)CCCC3)c1ccc(Cl)cc1` here?
**A.** inconclusive: 35.5 µM [inhibitor, partial curve, poor fit]

**Q.** Which Potency does the source give for `CCOC(=O)c1[nH]c(C)c(CCC(=O)N2CCN(c3cc(Cl)ccc3C)CC2)c1C` here?
**A.** inconclusive: 20 µM [inhibitor, partial curve, poor fit]

**Q.** For `CCCCOC(=O)c1ccc(NC(=O)c2ccc3c(c2)CCN3S(=O)(=O)c2ccccc2)cc1`, which Potency is on record?
**A.** inconclusive: 14.1 µM [inhibitor, partial curve, poor fit]

**Q.** For `Cc1cccc(NC(=O)Cn2nc(C)c3nn(-c4ccc(Cl)cc4)c(C)c3c2=O)c1C`, which Potency is on record?
**A.** inconclusive: 12.6 µM [inhibitor, single point]

**Q.** With `COc1ccccc1N1CCN(C(=O)c2ccc3c(c2)N(Cc2ccccc2)C(=O)c2ccccc2S3(=O)=O)CC1` as the compound, how does the Potency read?
**A.** inconclusive: 39.8 µM [inhibitor, single point]

**Q.** Which Potency does the source give for `O=C(c1cnc(N2CCOCC2)c2ccccc12)N1CCN(c2ccc(F)cc2)CC1` here?
**A.** inconclusive: 20 µM [inhibitor, partial curve]

**Q.** Which Potency does the source give for `Cc1cccc(-c2noc(CN(C(C)C)S(=O)(=O)c3ccc(Br)cc3)n2)c1` here?
**A.** inconclusive: 39.8 µM [inhibitor, single point]

**Q.** For `O=C(CSc1nnc(-c2cccs2)o1)Nc1cccc(C(F)(F)F)c1`, which activity change, negative = inhibition is on record?
**A.** inactive: -18.6% [at 11.5 µM]

**Q.** For `COc1c(C)c2c(c(O)c1C/C=C(\C)CCC(=O)OCCN1CCOCC1)C(=O)OC2`, which Potency is on record?
**A.** inactive

**Q.** For `COCCOC(=O)C1=C(C)NC(C)=C(C(=O)OC(C)C)C1c1cccc([N+](=O)[O-])c1` (stereo not given), which Potency is on record?
**A.** inactive

**Q.** With `Cc1cc2c(cc1S(=O)(=O)CCC(=O)NCc1ccccc1)OCC(=O)N2` as the compound, how does the Potency read?
**A.** inactive

**Q.** With `COc1cccc(NC(=O)CSc2nc3c([nH]c4ccccc43)c(=O)n2-c2ccccc2)c1` as the compound, how does the Potency read?
**A.** inconclusive: 25.1 µM [inhibitor, single point]

**Q.** For `CCCN1C(=O)c2[nH]nc(-c3ccccc3O)c2C1c1cccc(OCc2ccccc2)c1` (stereo not given), which Potency is on record?
**A.** inconclusive: 22.4 µM [inhibitor, single point]

**Q.** Which activity change, negative = inhibition does the source give for `CCOc1ccccc1NC(=O)CSc1nnc(N)s1` here?
**A.** inactive: -12.4% [at 11.5 µM]

**Q.** Which Potency does the source give for `COCCNC(=O)C(=O)NCC(c1cccnc1)N1CCN(c2ccccc2OC)CC1` (stereo not given) here?
**A.** inconclusive: 22.4 µM [inhibitor, partial curve]

**Q.** Which Potency does the source give for `CN(C)S(=O)(=O)c1ccc(C(=O)NCCS(=O)(=O)N2CCN(c3ccccc3)CC2)cc1` here?
**A.** inconclusive: 22.4 µM [inhibitor, partial curve, poor fit]

**Q.** With `Cc1cc(-n2c(C)nc3ccccc3c2=O)ccc1NC(=O)c1ccc(C)c([N+](=O)[O-])c1` as the compound, how does the Potency read?
**A.** inconclusive: 35.5 µM [inhibitor, partial curve, poor fit]

**Q.** With `CS(=O)(=O)Oc1ccc2c(NC(N)=O)c(C(=O)c3ccc(Cl)cc3Cl)oc2c1` as the compound, how does the Potency read?
**A.** inactive

**Q.** With `CCc1sc(Nc2ccc(Cl)cc2)nc1-c1cc2cccc(OC)c2oc1=O` as the compound, how does the Potency read?
**A.** inconclusive: 11.2 µM [inhibitor, partial curve, poor fit]

**Q.** For `CC(C(=O)Nc1ccc(F)c(Cl)c1)N1Cc2ccccc2C1=O` (stereo not given), which Potency is on record?
**A.** inconclusive: 44.7 µM [inhibitor, single point]

**Q.** For `COc1ccc(-c2noc(N3CCN(c4cccc(Cl)c4)CC3)n2)cc1OC`, which Potency is on record?
**A.** inconclusive: 25.1 µM [inhibitor, partial curve, poor fit]

**Q.** With `CCSc1oc(-c2ccc(F)cc2)nc1S(=O)(=O)c1ccc(C)cc1` as the compound, how does the Potency read?
**A.** inconclusive: 25.1 µM [inhibitor, single point]

**Q.** With `Cc1cc(OCC(=O)Nc2cc(-c3nc4ccccc4[nH]3)ccc2C)ccc1Cl` as the compound, how does the Potency read?
**A.** inconclusive: 39.8 µM [inhibitor, single point]

**Q.** For `CCCCC(CC)CNC(=O)c1ccc2c(=O)n(CCOC)c(=O)[nH]c2c1` (stereo not given), which Potency is on record?
**A.** inconclusive: 4.47 µM [inhibitor, partial curve, poor fit]

**Q.** With `CC(C)(C)c1ccc(C(=O)NCC(c2cccs2)S(=O)(=O)c2ccc(F)cc2)cc1` (stereo not given) as the compound, how does the Potency read?
**A.** active: 20 µM

**Q.** With `CC(=O)c1cccc(S(=O)(=O)N2CCN(c3ccccc3F)CC2)c1` as the compound, how does the Potency read?
**A.** inconclusive: 35.5 µM [inhibitor, single point]

**Q.** Which Potency does the source give for `CCN(CC)CCNC(=O)c1ccc2nc(-c3ccccc3)c(-c3ccc(CN4CCC(n5c(=O)[nH]c6ccccc65)CC4)cc3)nc2c1` here?
**A.** inconclusive: 24.3 µM [inhibitor, partial curve]

**Q.** With `Cc1cccc(C(=O)Nc2ccc(-c3nc4cc(C(C)C)ccc4o3)cc2)c1` as the compound, how does the Potency read?
**A.** inconclusive: 39.8 µM [inhibitor, partial curve, poor fit]
